Data on 29 molecules can be found in the supplement of paper PMC12297408.

SMILES strings stand for the structures. Counter-ions that a name gives are not always drawn. Among all 1,300 compounds or so, about 40 (3%) showed activity. The list shows a part of the results.

This test concerns Plasmodium falciparum NF54/iGP1_RE9H ulg8 stage V gametocytes. The experiment in a line: gametocyte viability (luciferase signal relative to DMSO control) (% of DMSO control); higher = less gametocytocidal activity, active = 50 or less. As to conditions: exposure time: 72 h. The method in brief:
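Stage V gametocytes of the NF54/iGP1_RE9Hulg8 line (day 12; ~2.5% gametocytemia, 3% hematocrit), in medium containing 0.5% Albumax II, were dispensed into 96-well plates with compounds spotted in nanolitre volumes from 10 mM DMSO stocks, for final concentrations of 10 µM or 1 µM in a single well each. After 72 h at 37 °C, 90 µl from each well was combined with 10 µl D-luciferin (30 mg/ml), and luminescence was measured on an IVIS Lumina II. Viability was expressed against the mean of the DMSO vehicle wells on the same plate.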

For `COC(=O)Nc1nc2cc(Sc3ccccc3)ccc2[nH]1` [Fenbendazole], the gametocyte viability by setting is: (concentration: 1 µM) inactive: 84.5; (concentration: 10 µM) inactive: 80.4.
For `CN(CCCCCCCCCCN(C)C(=O)Oc1cccc([N+](C)(C)C)c1)C(=O)Oc1cccc([N+](C)(C)C)c1` [Demecarium bromide], in that order: inactive: 88.4 and inactive: 88.2.
For `CC(=O)N(CC(O)CO)c1c(I)c(C(=O)NCC(O)CO)c(I)c(C(=O)NCC(O)CO)c1I` (stereo not drawn) [Iohexol], in that order: inactive: 87 and inactive: 84.1.
For `CCN(CC)CCNC(=O)c1ccc(N)cc1` [Procainamide hydrochloride], the gametocyte viability reads like this: (concentration: 1 µM) inactive: 84.3; (concentration: 10 µM) inactive: 79.4.
For `CC(=O)Nc1c(I)c(C(=O)N[C@H]2C(O)O[C@H](CO)[C@@H](O)[C@@H]2O)c(I)c(N(C)C(C)=O)c1I` (stereo partly drawn) [Metrizamide], in that order: inactive: 84.7 and inactive: 88.9.
For `CCOC1O[C@H]([C@@H](COCc2ccccc2)OCc2ccccc2)[C@H](OCc2ccccc2)[C@H]1O` (stereo partly drawn) [Tribenoside], in that order: inactive: 81.8 and inactive: 56.9.
In the same order, the values of `CNCC(O)c1ccc(O)c(O)c1` (stereo not drawn) [Racepinephrine HCl] are inactive: 81.4 and inactive: 86.
With `CC(CNC1CCCCC1)OC(=O)c1ccccc1` (stereo not drawn) [Hexylcaine hydrochloride], the gametocyte viability is, setting by setting: (concentration: 1 µM) inactive: 88.5; (concentration: 10 µM) inactive: 80.5.
In the same order, the values of `Nc1ccc(S(=O)(=O)Nc2nccs2)cc1` [Sulfathiazole] are inactive: 96.7 and inactive: 91.9.
For `Cc1ccc(-c2cc(C(F)(F)F)nn2-c2ccc(S(N)(=O)=O)cc2)cc1` [Celecoxib], in that order: inactive: 89.4 and inactive: 84.1.
For `CC[C@H]1OC(=O)[C@H](C)[C@@H](O[C@H]2C[C@@](C)(OC)[C@@H](O)[C@H](C)O2)[C@H](C)[C@@H](O[C@@H]2O[C@H](C)C[C@H](N(C)C)[C@H]2O)[C@](C)(O)C[C@@H](C)CN(C)[C@H](C)[C@@H](O)[C@]1(C)O` [Azithromycin], in that order: inactive: 85.5 and inactive: 86.7.
Turning to `CN[C@H]1CC[C@@H](c2ccc(Cl)c(Cl)c2)c2ccccc21` [Sertraline], the gametocyte viability (concentration: 1 µM) was inactive: 91.9 and the gametocyte viability (concentration: 10 µM) was inactive: 65.9.
For `C[C@]12CC[C@@H]3c4ccc(O)cc4C[C@@H](CCCCCCCCC[S+]([O-])CCCC(F)(F)C(F)(F)F)[C@H]3[C@@H]1CC[C@@H]2O` (stereo partly drawn) [Fulvestrant], in that order: inactive: 90.3 and inactive: 84.7.
As for `CO/N=C(\C(=O)N[C@@H]1C(=O)N2C(C(=O)O)=C(COC(C)=O)CS[C@H]12)c1csc(N)n1` [Cefotaxime sodium salt], the gametocyte viability is inactive: 98 (concentration: 1 µM) and inactive: 99.5 (concentration: 10 µM).
In the same order, the values of `CC(C)Oc1ccc2c(=O)c(-c3ccccc3)coc2c1` [Ipriflavone] are inactive: 81.6 and inactive: 74.6.
Consider `Cc1cc2cc3c(C)cc(=O)oc3c(C)c2o1` [Trioxsalen], for which the gametocyte viability is, setting by setting: (concentration: 1 µM) inactive: 82; (concentration: 10 µM) inactive: 88.2.
For `CC(=O)Nc1nnc(S(N)(=O)=O)s1` [Acetazolamide], in that order: inactive: 86.4 and inactive: 87.1.
In the case of `Clc1ccc2nsnc2c1NC1=NCCN1` [Tizanidine HCl], the gametocyte viability reads like this: (concentration: 1 µM) inactive: 93.4; (concentration: 10 µM) inactive: 98.4.
`CCCCOc1cc(C(=O)OCCN(CC)CC)ccc1N` [Benoxinate hydrochloride]: the gametocyte viability runs as follows: (concentration: 1 µM) inactive: 87; (concentration: 10 µM) inactive: 87.3.
Consider `Nc1nc(=O)n([C@@H]2CS[C@H](CO)O2)cc1F` [(-)-Emtricitabine], for which the gametocyte viability is, setting by setting: (concentration: 1 µM) inactive: 78.6; (concentration: 10 µM) inactive: 84.7.
Consider `COc1ccc(Cl)cc1C(=O)NCCc1ccc(S(=O)(=O)NC(=O)NC2CCCCC2)cc1` [Glibenclamide], for which the gametocyte viability is, setting by setting: (concentration: 1 µM) inactive: 86.1; (concentration: 10 µM) inactive: 85.3.
In the same order, the values of `CC#C[C@]1(O)CC[C@H]2[C@@H]3CCC4=CC(=O)CCC4=C3[C@@H](c3ccc(N(C)C)cc3)C[C@@]21C` [Mifepristone] are inactive: 83.1 and inactive: 83.2.
In the same order, the values of `CCCCCCNC(=O)n1cc(F)c(=O)[nH]c1=O` [Carmofur] are inactive: 80.2 and inactive: 76.4.
For `CCCOc1ccccc1-c1nc2[nH]nnc2c(=O)[nH]1` [Zaprinast], the gametocyte viability is, setting by setting: (concentration: 1 µM) inactive: 85.1; (concentration: 10 µM) inactive: 85.1.
In the case of `CN1CCN2c3ncccc3Cc3ccccc3C2C1` (stereo not drawn) [Mirtazapine], the gametocyte viability is inactive: 79.6 (concentration: 1 µM) and inactive: 77.4 (concentration: 10 µM).
Turning to `CC(C)[C@H](N)C(=O)OCCOCn1cnc2c(=O)nc(N)[nH]c21` [Valacyclovir hydrochloride], the gametocyte viability runs as follows: (concentration: 1 µM) inactive: 85.1; (concentration: 10 µM) inactive: 83.7.
`Cc1cc(C)nc(NS(=O)(=O)c2ccc(N)cc2)n1` [Sulfamethazine sodium salt]: the gametocyte viability was inactive: 84.4 (concentration: 1 µM) and inactive: 81 (concentration: 10 µM).
On to `CC1(C)O[C@@H]2C[C@H]3[C@@H]4C[C@H](F)C5=CC(=O)C=C[C@]5(C)[C@@]4(F)[C@@H](O)C[C@]3(C)[C@]2(C(=O)CO)O1` [Fluocinolone acetonide], for which the gametocyte viability is inactive: 83.3 (concentration: 1 µM) and inactive: 83.3 (concentration: 10 µM).
On to `COc1cc(NS(=O)(=O)c2ccc(N)cc2)ncn1` [Sulfamonomethoxine], for which the gametocyte viability reads like this: (concentration: 1 µM) inactive: 85.2; (concentration: 10 µM) inactive: 89.5.
